From patent US8304182B2, “Methods of identifying anti-cancer agents and uses thereof” (The Trustees of the University of Pennsylvania, priority 2003, dated 2012) come the findings set out here.

The test system of one experiment is ATP. As to the kind of experiment: Determination of cellular ATP. It counts as cell-based, mouse. Conditions: oligomycin 5 μg/ml, FIG. 7B.
The test system of another experiment is wild-type MEFs. Particulars: wild-type cells, staurosporine, FIG. 3F.
A further experiment relates to bax^−/−bak^−/− cells. Particulars: 0.5 mM MNNG or 2 μM staurosporine, 9 h.
In the next experiment the test system is wild-type cells. Particulars: 0.5 mM MNNG or 2 μM staurosporine, 9 h.

Take `CC[C@H]1/C=C/C=C/C[C@@H](C)[C@H](O)[C@@](C)(O)C(=O)[C@@H](C)[C@H](O)[C@@H](C)C(=O)[C@@H](C)[C@H](O)[C@@H](C)/C=C/C(=O)O[C@@H]2[C@H](C)[C@H](CC1)O[C@]1(CC[C@H](C)[C@H](C[C@@H](C)O)O1)[C@H]2C` [oligomycin]: the “ATP level on inhibition of oxidative phosphorylation” value in the experiment on ATP (IL3-deprived bax^−/−bak^−/− cells) is reported as “fell dramatically”; in the experiment on ATP (IL-3 treated bax^−/−bak^−/− cells) it was “did not affect the ATP level”.

In the case of `CN[C@@H]1C[C@H]2O[C@@](C)([C@@H]1OC)n1c3ccccc3c3c4c(c5c6ccccc6n2c5c31)C(=O)NC4` [staurosporine], in the experiment with wild-type MEFs, the cell death result was “killed”. The “morphologic features of cell death by electron microscopy” value in the experiment on bax^−/−bak^−/− cells is recorded as “apoptotic features were not observed”; in the experiment on wild-type cells, “apoptotic morphological changes”.
